According to the supplement of paper PMC7580552:
Counter-ions that a name gives are not always drawn. Some of the results follow. Many values rest on one well or one pass, so single values are uncertain.

These molecules were tested on Escherichia coli W3110 (assay: planktonic growth (OD600) relative to untreated control; higher = more growth). Conditions: 10 µM; 20-24 h; 30 °C; TB.
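Also: stationary (unshaken) cultures in 96-well plates, started at OD600 0.05 from mid-exponential cells, with compounds supplied from DMSO stocks.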

Q: Oc1ccc(C2CNCCc3c2cc(O)c(O)c3Cl)cc1 (stereo not drawn) [Fenoldopam] was tested. Which planktonic growth did it give?
A: 80%

Q: How did the planktonic growth turn out when CC(=O)OCC(=O)NCCCOc1cccc(CN2CCCCC2)c1 [Roxatidine Acetate hydrochloride] was run?
A: 98%

Q: For CCn1cc(C(=O)O)c(=O)c2cc(F)c(N3CCNCC3)nc21 [Enoxacin], which planktonic growth is on record?
A: 27%

Q: How did the planktonic growth turn out when CCCCCCCCCCCCCCCC[N+](C)(C)CCN(Cc1ccc(OC)cc1)c1ncccn1 [Thonzonium bromide] was run?
A: 54%

Q: How did the planktonic growth turn out when CCN(CC)CCCC(C)Nc1c2ccc(Cl)cc2nc2ccc(OC)cc12 (stereo not drawn) [Quinacrine dihydrochloride hydrate] was run?
A: 112%

Q: With CC(=O)N1CCN(c2ccc(OCC3COC(Cn4ccnc4)(c4ccc(Cl)cc4Cl)O3)cc2)CC1 (stereo not drawn) [Ketoconazole] as the molecule, how does the planktonic growth read?
A: 104%

Q: For CN(CCOc1ccc(NS(C)(=O)=O)cc1)CCc1ccc(NS(C)(=O)=O)cc1 [Dofetilide], which planktonic growth is on record?
A: 93%

Q: Which planktonic growth does the source give for C#C[C@]1(O)CC[C@H]2[C@@H]3CCc4cc(OC)ccc4[C@H]3CC[C@@]21C [Ethynylestradiol 3-methyl ether] here?
A: 100%

Q: For CC(C)NCC(O)c1ccc(NS(C)(=O)=O)cc1 (stereo not drawn) [Sotalol hydrochloride], which planktonic growth is on record?
A: 108%

Q: For CCOC(=O)Nc1ccc2c(c1)N(C(=O)CCN1CCOCC1)c1ccccc1S2 [Moricizine hydrochloride], which planktonic growth is on record?
A: 93%

Q: How did the planktonic growth turn out when COC(=O)[C@H]1[C@H]2C[C@@H]3c4[nH]c5cc(OC)ccc5c4CCN3C[C@H]2C[C@@H](OC(=O)c2cc(OC)c(OC)c(OC)c2)[C@@H]1OC [Reserpine] was run?
A: 102%

Q: CNC(=C[N+](=O)[O-])NCCSCc1ccc(CN(C)C)o1 [Ranitidine hydrochloride] was tested. Which planktonic growth did it give?
A: 111%

Q: How did the planktonic growth turn out when CC(C)C[C@H](NC(=O)[C@@H](O)[C@H](N)Cc1ccccc1)C(=O)O [Ubenimex] was run?
A: 100%

Q: Which planktonic growth does the source give for C[C@]12C=CC(=O)C=C1CC[C@@H]1[C@@H]2[C@@H](O)C[C@@]2(C)[C@H]1CC[C@]2(O)C(=O)CO [Prednisolone] here?
A: 92%

Q: With O=c1[nH]cc(F)c(=O)[nH]1 [5-fluorouracil] as the molecule, how does the planktonic growth read?
A: 78%

Q: Which planktonic growth does the source give for CS(=O)(=O)c1ccc([C@@H](O)[C@@H](CO)NC(=O)C(Cl)Cl)cc1 [Thiamphenicol] here?
A: 80%

Q: For CC(C)Cc1ccc([C@H](C)C(=O)O)cc1 [S-(+)-ibuprofen], which planktonic growth is on record?
A: 92%

Q: Which planktonic growth does the source give for CC(=O)Oc1cc(C(F)(F)F)ccc1C(=O)O [Triflusal] here?
A: 106%

Q: With C[C@@H](c1ncncc1F)[C@](O)(Cn1cncn1)c1ccc(F)cc1F [Voriconazole] as the molecule, how does the planktonic growth read?
A: 98%

Q: With O=C(O)Cc1ccccc1Nc1c(Cl)cccc1Cl [Diclofenac sodium] as the molecule, how does the planktonic growth read?
A: 95%

Q: With CN1CCN(CCCN2c3ccccc3Sc3ccc(S(=O)(=O)N(C)C)cc32)CC1 [Thioproperazine dimesylate] as the molecule, how does the planktonic growth read?
A: 94%

Q: CC(=O)O[C@]1(C(C)=O)CC[C@H]2[C@@H]3C=C(C)C4=CC(=O)CC[C@@H]4[C@H]3CC[C@@]21C [Nomegestrol acetate] was tested. Which planktonic growth did it give?
A: 93%

Q: NS(=O)(=O)c1cc2c(cc1Cl)N=C(CSCc1ccccc1)NS2(=O)=O [Benzthiazide] was tested. Which planktonic growth did it give?
A: 93%

Q: Which planktonic growth does the source give for O=C1C(CC[S+]([O-])c2ccccc2)C(=O)N(c2ccccc2)N1c1ccccc1 (stereo not drawn) [Sulfinpyrazone] here?
A: 109%

Q: With Nc1ccc(S(=O)(=O)Nc2ncccn2)cc1 [Sulfadiazine] as the molecule, how does the planktonic growth read?
A: 62%

Q: With C#C[C@]1(OC(C)=O)CC[C@H]2[C@@H]3CCC4=C[C@@H](OC(C)=O)CC[C@@H]4[C@H]3CC[C@@]21C [Ethynodiol diacetate] as the molecule, how does the planktonic growth read?
A: 95%

Q: With C#C[C@]1(O)CC[C@H]2[C@@H]3CCC4=CC(=O)CC[C@@H]4[C@H]3CC[C@@]21C [Norethindrone] as the molecule, how does the planktonic growth read?
A: 89%

Q: With CO[C@@]1(NC(=O)C(C(=O)O)c2ccc(O)cc2)C(=O)N2C(C(=O)O)=C(CSc3nnnn3C)CO[C@@H]21 (stereo partly drawn) [Moxalactam disodium salt] as the molecule, how does the planktonic growth read?
A: 19%

Q: With COC(=O)C1=C(C)NC(C)=C(C(=O)OC)C1c1ccccc1[N+](=O)[O-] [Nifedipine] as the molecule, how does the planktonic growth read?
A: 93%

Q: How did the planktonic growth turn out when Cc1cc(NC(=O)C2=C(O)c3ccccc3S(=O)(=O)N2C)no1 [Isoxicam] was run?
A: 102%

Q: How did the planktonic growth turn out when Cc1cc(C(C)(C)CC(C)(C)C)ccc1OCCOCC[N+](C)(C)Cc1ccccc1 [Methyl benzethonium chloride] was run?
A: 62%

Q: With CN(C)CCCN1c2ccccc2CCc2ccc(Cl)cc21 [Clomipramine hydrochloride] as the molecule, how does the planktonic growth read?
A: 96%

Q: Which planktonic growth does the source give for CO[C@@]1(NC(=O)C2SC(=C(C(N)=O)C(=O)O)S2)C(=O)N2C(C(=O)O)=C(CSc3nnnn3C)CS[C@@H]21 (stereo partly drawn) [Cefotetan] here?
A: 1%

Q: For CCN(CC)CCOC(=O)C1(c2ccc([N+](=O)[O-])cc2)CCCC1 [Nitrocaramiphen hydrochloride], which planktonic growth is on record?
A: 99%

Q: Clc1ccccc1CN1CCc2sccc2C1 [Ticlopidine hydrochloride] was tested. Which planktonic growth did it give?
A: 104%

Q: Nc1ccc(O)c(C(=O)O)c1 [Mesalamine] was tested. Which planktonic growth did it give?
A: 94%

Q: With CC(c1cc2ccccc2s1)N(O)C(N)=O (stereo not drawn) [Zileuton] as the molecule, how does the planktonic growth read?
A: 98%

Q: For CC(=O)Oc1cc(C(C)C)c(OCCN(C)C)cc1C [Moxisylyte hydrochoride], which planktonic growth is on record?
A: 106%

Q: How did the planktonic growth turn out when O=c1[nH]c(=O)n([C@H]2C[C@H](O)[C@@H](CO)O2)cc1F [Floxuridine] was run?
A: 86%

Q: How did the planktonic growth turn out when CNNCc1ccc(C(=O)NC(C)C)cc1 [Procarbazine hydrochloride] was run?
A: 99%

Q: With C[N+]1(C)CCC(=C(c2ccccc2)c2ccccc2)CC1 [Diphemanil methylsulfate] as the molecule, how does the planktonic growth read?
A: 101%

Q: For NS(=O)(=O)c1cc2c(cc1Cl)NCNS2(=O)=O [Hydrochlorothiazide], which planktonic growth is on record?
A: 107%

Q: For CN(C)CCc1c[nH]c2ccc(C[C@H]3COC(=O)N3)cc12 [Zolmitriptan], which planktonic growth is on record?
A: 94%

Q: How did the planktonic growth turn out when CN(C)CCC=C1c2ccccc2C=Cc2ccccc21 [Cyclobenzaprine hydrochloride] was run?
A: 106%

Q: With CC(C)OC(=O)CCC/C=C\C[C@@H]1[C@@H](CC[C@@H](O)CCc2ccccc2)[C@H](O)C[C@@H]1O [Latanoprost] as the molecule, how does the planktonic growth read?
A: 89%

Q: With COc1cc(C)c(/C=C/C(C)=C/C=C/C(C)=C/C(=O)O)c(C)c1C [Acitretin] as the molecule, how does the planktonic growth read?
A: 99%

Q: Which planktonic growth does the source give for Nc1ccc(S(=O)(=O)Nc2ccc(Cl)nn2)cc1 [Sulfachloropyridazine] here?
A: 68%

Q: COc1cc2nc(N3CCN(C(=O)C4CCCO4)CC3)nc(N)c2cc1OC (stereo not drawn) [Terazosin hydrochloride] was tested. Which planktonic growth did it give?
A: 103%

Q: Which planktonic growth does the source give for CC(=O)OCC(=O)[C@@]1(O)CC[C@H]2[C@@H]3CCC4=CC(=O)C=C[C@]4(C)[C@@]3(F)[C@@H](O)C[C@@]21C [Isoflupredone acetate] here?
A: 101%

Q: Which planktonic growth does the source give for COc1cc(C(=O)N2CCOCC2)cc(OC)c1OC [Trimetozine] here?
A: 95%

Q: With C#C[C@]1(O)CC[C@H]2[C@@H]3[C@H](C)CC4=C(CCC(=O)C4)[C@H]3CC[C@@]21C [Tibolone] as the molecule, how does the planktonic growth read?
A: 105%

Q: How did the planktonic growth turn out when CN(C)CCCOc1nn(Cc2ccccc2)c2ccccc12 [Benzydamine hydrochloride] was run?
A: 91%

Q: CN1CCN(C(c2ccccc2)c2ccc(Cl)cc2)CC1 (stereo not drawn) [Chlorcyclizine hydrochloride] was tested. Which planktonic growth did it give?
A: 97%

Q: For O=C(N/N=C/c1ccc([N+](=O)[O-])o1)c1ccc(O)cc1 [Nifuroxazide], which planktonic growth is on record?
A: 92%

Q: For CN(N=O)C(=O)N[C@@H](C=O)[C@@H](O)[C@H](O)[C@H](O)CO [Streptozotocin], which planktonic growth is on record?
A: 93%

Q: Which planktonic growth does the source give for CCC(=O)[C@@]1(C)[C@H](C)C[C@H]2[C@@H]3CCC4=CC(=O)C=C[C@]4(C)[C@H]3[C@@H](O)C[C@@]21C [Rimexolone] here?
A: 92%

Q: For CC(=O)Nc1c(I)c(NC(C)=O)c(I)c(C(=O)O)c1I [Diatrizoic acid dihydrate], which planktonic growth is on record?
A: 97%

Q: CCc1cc(C(N)=S)ccn1 [Ethionamide] was tested. Which planktonic growth did it give?
A: 97%

Q: For CCc1c2c(nc3ccc(OC(=O)N4CCC(N5CCCCC5)CC4)cc13)-c1cc3c(c(=O)n1C2)COC(=O)[C@]3(O)CC [Irinotecan hydrochloride trihydrate], which planktonic growth is on record?
A: 114%

Q: Which planktonic growth does the source give for CNCCC=C1c2ccccc2CCc2ccccc21 [Nortriptyline hydrochloride] here?
A: 92%

Q: For C[C@H]1[C@H](NC(=O)/C(=N\OC(C)(C)C(=O)O)c2csc(N)n2)C(=O)N1S(=O)(=O)O [Aztreonam], which planktonic growth is on record?
A: 20%

Q: Which planktonic growth does the source give for Cc1c(Cl)cccc1Nc1ncccc1C(=O)O [Clonixin Lysinate] here?
A: 97%

Q: For Cc1ccc(/C(=C\CN2CCCC2)c2ccccn2)cc1 [Triprolidine hydrochloride], which planktonic growth is on record?
A: 95%

Q: CC(C)(O/N=C(\C(=O)N[C@@H]1C(=O)N2C(C(=O)[O-])=C(C[n+]3ccccc3)CS[C@H]12)c1csc(N)n1)C(=O)O [Ceftazidime pentahydrate] was tested. Which planktonic growth did it give?
A: 3%

Q: How did the planktonic growth turn out when C[C@]12C=CC(=O)C=C1CC[C@@H]1[C@@H]2C(=O)C[C@@]2(C)[C@H]1CC[C@]2(O)C(=O)CO [Prednisone] was run?
A: 99%

Q: How did the planktonic growth turn out when CNC(=C[N+](=O)[O-])NCCSCc1csc(CN(C)C)n1 [Nizatidine] was run?
A: 106%

Q: Which planktonic growth does the source give for CC(C)CN(C[C@@H](O)[C@H](Cc1ccccc1)NC(=O)O[C@H]1CCOC1)S(=O)(=O)c1ccc(N)cc1 [Amprenavir] here?
A: 93%

Q: CCn1cc(C(=O)O)c(=O)c2cc(F)c(N3CCNC(C)C3)c(F)c21 (stereo not drawn) [Lomefloxacin hydrochloride] was tested. Which planktonic growth did it give?
A: 26%

Q: With COc1cc(C)nc(-n2nc(C)cc2OC)n1 [Epirizole] as the molecule, how does the planktonic growth read?
A: 94%

Q: CS(=O)(=O)Nc1ccc([N+](=O)[O-])cc1Oc1ccccc1 [Nimesulide] was tested. Which planktonic growth did it give?
A: 95%

Q: CCn1cc(C(=O)O)c(=O)c2cc(F)c(N3CCN(C)CC3)cc21 [Pefloxacine] was tested. Which planktonic growth did it give?
A: 6%

Q: Which planktonic growth does the source give for C[C@@H]1CN(c2c(F)c(N)c3c(=O)c(C(=O)O)cn(C4CC4)c3c2F)C[C@H](C)N1 [Sparfloxacin] here?
A: 6%

Q: For COc1ccc2cc(CCC(C)=O)ccc2c1 [Nabumetone], which planktonic growth is on record?
A: 95%
